To fix the notation:
B1: bispecific antibody BM#34 against CD33 and CD123 (bispecific antibody, human IgG1)
chain 1: QVQLVESGGGSVQAGGSLRLSCAASGYTYSSTCIGWFRQAPGKDREGVAFAYTGGGVTYADSVKGRFTISQDNAKNTVHLIMNSLKPEDTAMYYCAAKTRGGCWAAAAFYNYWGQGTQVTVSS[human IgG1 Fc with D356V (EU numbers) left out here]
chain 2: QVQLVESGGGSVQAGGSLKLSCAASRFIFSRCGMGWFRQAPGKERELVSTISGDGTTFYADSVKGRFTISQHNAATTLYLQMNSLKLEDTAVYYCAADCYNRKYWGQGTQVTVSS[human IgG1 Fc with K439W (EU numbers) left out here]
notes: VHH-Fc heterodimer; also called BM-RT2831-#34
B2: bispecific antibody BM#5 against CD33 and CD123 (bispecific antibody, human IgG1)
chain 1: QVQLVESGGGSVQAGGSLRLSCAASGYTYSSTCIGWFRQAPGKDREGVAFAYTGGGVTYADSVKGRFTISQDNAKNTVHLIMNSLKPEDTAMYYCAAKTRGGCWAAAAFYNYWGQGTQVTVSS[human IgG1 Fc with D356K T366W (EU numbers) left out here]
chain 2: QVQLVESGGGSVQAGGSLKLSCAASRFIFSRCGMGWFRQAPGKERELVSTISGDGTTFYADSVKGRFTISQHNAATTLYLQMNSLKLEDTAVYYCAADCYNRKYWGQGTQVTVSS[human IgG1 Fc with T366S L368A Y407V K439E (EU numbers) left out here]
notes: VHH-Fc heterodimer; also called BM-RT2831-#5
B3: bispecific antibody BM#17 against CD33 and CD123 (bispecific antibody, human IgG1)
chain 1: QVQLVESGGGSVQAGGSLRLSCAASGYTYSSTCIGWFRQAPGKDREGVAFAYTGGGVTYADSVKGRFTISQDNAKNTVHLIMNSLKPEDTAMYYCAAKTRGGCWAAAAFYNYWGQGTQVTVSS[human IgG1 Fc with K360D T366W (EU numbers) left out here]
chain 2: QVQLVESGGGSVQAGGSLKLSCAASRFIFSRCGMGWFRQAPGKERELVSTISGDGTTFYADSVKGRFTISQHNAATTLYLQMNSLKLEDTAVYYCAADCYNRKYWGQGTQVTVSS[human IgG1 Fc with Q347R T366S L368A Y407V (EU numbers) left out here]
notes: VHH-Fc heterodimer; also called BM-RT2831-#17
B4: bispecific antibody BM#19 against CD33 and CD123 (bispecific antibody, human IgG1)
chain 1: QVQLVESGGGSVQAGGSLRLSCAASGYTYSSTCIGWFRQAPGKDREGVAFAYTGGGVTYADSVKGRFTISQDNAKNTVHLIMNSLKPEDTAMYYCAAKTRGGCWAAAAFYNYWGQGTQVTVSS[human IgG1 Fc with K370Y Y407A (EU numbers) left out here]
chain 2: QVQLVESGGGSVQAGGSLKLSCAASRFIFSRCGMGWFRQAPGKERELVSTISGDGTTFYADSVKGRFTISQHNAATTLYLQMNSLKLEDTAVYYCAADCYNRKYWGQGTQVTVSS[human IgG1 Fc with E357D T366V (EU numbers) left out here]
notes: VHH-Fc heterodimer; also called BM-RT2831-#19
B5: bispecific antibody BM#18 against CD33 and CD123 (bispecific antibody, human IgG1)
chain 1: QVQLVESGGGSVQAGGSLRLSCAASGYTYSSTCIGWFRQAPGKDREGVAFAYTGGGVTYADSVKGRFTISQDNAKNTVHLIMNSLKPEDTAMYYCAAKTRGGCWAAAAFYNYWGQGTQVTVSS[human IgG1 Fc with T366V K439E (EU numbers) left out here]
chain 2: QVQLVESGGGSVQAGGSLKLSCAASRFIFSRCGMGWFRQAPGKERELVSTISGDGTTFYADSVKGRFTISQHNAATTLYLQMNSLKLEDTAVYYCAADCYNRKYWGQGTQVTVSS[human IgG1 Fc with D356K Y407A (EU numbers) left out here]
notes: VHH-Fc heterodimer; also called BM-RT2831-#18
B6: bispecific antibody BM#8 against CD33 and CD123 (bispecific antibody, human IgG1)
chain 1: QVQLVESGGGSVQAGGSLRLSCAASGYTYSSTCIGWFRQAPGKDREGVAFAYTGGGVTYADSVKGRFTISQDNAKNTVHLIMNSLKPEDTAMYYCAAKTRGGCWAAAAFYNYWGQGTQVTVSS[human IgG1 Fc with D356K T366V (EU numbers) left out here]
chain 2: QVQLVESGGGSVQAGGSLKLSCAASRFIFSRCGMGWFRQAPGKERELVSTISGDGTTFYADSVKGRFTISQHNAATTLYLQMNSLKLEDTAVYYCAADCYNRKYWGQGTQVTVSS[human IgG1 Fc with Y407A K439E (EU numbers) left out here]
notes: VHH-Fc heterodimer; also called BM-RT2831-#8
B7: bispecific antibody BM#35 against CD33 and CD123 (bispecific antibody, human IgG1)
chain 1: QVQLVESGGGSVQAGGSLRLSCAASGYTYSSTCIGWFRQAPGKDREGVAFAYTGGGVTYADSVKGRFTISQDNAKNTVHLIMNSLKPEDTAMYYCAAKTRGGCWAAAAFYNYWGQGTQVTVSS[human IgG1 Fc with E357V (EU numbers) left out here]
chain 2: QVQLVESGGGSVQAGGSLKLSCAASRFIFSRCGMGWFRQAPGKERELVSTISGDGTTFYADSVKGRFTISQHNAATTLYLQMNSLKLEDTAVYYCAADCYNRKYWGQGTQVTVSS[human IgG1 Fc with K370W (EU numbers) left out here]
notes: VHH-Fc heterodimer; also called BM-RT2831-#35
B8: bispecific antibody BM#7 against CD33 and CD123 (bispecific antibody, human IgG1)
chain 1: QVQLVESGGGSVQAGGSLRLSCAASGYTYSSTCIGWFRQAPGKDREGVAFAYTGGGVTYADSVKGRFTISQDNAKNTVHLIMNSLKPEDTAMYYCAAKTRGGCWAAAAFYNYWGQGTQVTVSS[human IgG1 Fc with Q347R T366W (EU numbers) left out here]
chain 2: QVQLVESGGGSVQAGGSLKLSCAASRFIFSRCGMGWFRQAPGKERELVSTISGDGTTFYADSVKGRFTISQHNAATTLYLQMNSLKLEDTAVYYCAADCYNRKYWGQGTQVTVSS[human IgG1 Fc with K360D T366S L368A Y407V (EU numbers) left out here]
notes: VHH-Fc heterodimer; also called BM-RT2831-#7
B9: bispecific antibody BM#15 against CD33 and CD123 (bispecific antibody, human IgG1)
chain 1: QVQLVESGGGSVQAGGSLRLSCAASGYTYSSTCIGWFRQAPGKDREGVAFAYTGGGVTYADSVKGRFTISQDNAKNTVHLIMNSLKPEDTAMYYCAAKTRGGCWAAAAFYNYWGQGTQVTVSS[human IgG1 Fc with T366W K439E (EU numbers) left out here]
chain 2: QVQLVESGGGSVQAGGSLKLSCAASRFIFSRCGMGWFRQAPGKERELVSTISGDGTTFYADSVKGRFTISQHNAATTLYLQMNSLKLEDTAVYYCAADCYNRKYWGQGTQVTVSS[human IgG1 Fc with D356K T366S L368A Y407V (EU numbers) left out here]
notes: VHH-Fc heterodimer; also called BM-RT2831-#15

T1 sequence (P08637 17-208 limits assumed): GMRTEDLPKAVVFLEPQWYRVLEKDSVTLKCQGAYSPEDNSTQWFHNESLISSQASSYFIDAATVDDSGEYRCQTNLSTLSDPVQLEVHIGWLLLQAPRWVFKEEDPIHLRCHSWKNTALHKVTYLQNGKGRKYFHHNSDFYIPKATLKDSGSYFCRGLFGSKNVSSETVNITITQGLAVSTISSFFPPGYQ

One experiment addresses T1, human FCγRIIIa receptor (human, UniProt P08637 in part, limits assumed).
T1 construct: Used in solution as the 'antigen' in BLI; also called FcγIIIa receptor
Nature of the experiment: BLI; Ratio against the hIgG (hIgG1) control, fits KD(hIgG)/KD(sample). As to the method: (§1) (3) Preparation of antigen working solution: 200 nM antigen (FCγRIIIa) in SD buffer was first prepared at and then serially diluted in 2 folds to prepare a total of 5 concentration gradients, in addition to which a zero concentration was prepared.
(§2) (11) Data analysis: related constants, such as KD, Kon, Koff, X2, Full R2 and the like were calculated in Data Analysis software.
(§3) In the examples of the present application, the modified bispecific antibody was subjected to BLI test to determine the affinity of the modified bispecific antibody to human FCγRIIIa.
Background: BLI is a label-free optical method that tracks binding on a fibre tip over time.
On to B1, for which the Ratio was 1.13.
Consider B2, for which the Ratio is 1.16.
Still for that read-out and setting: the figure for B3 is 1.42; for B4 it is 1.1.
Still for that read-out and setting: the figure for B5 is 1.27.
The same measure, in the same setting: the figure for B6 is 1.4; for B7 it is 1.36; for B8 it is 1.45.
As to B9, the Ratio stood at 1.3.

The target in a further experiment is T1, human FCγRIIIa receptor. Nature of the experiment: BLI (Octet 96), antibody loaded on sensor, FCγRIIIa 200 nM and 2-fold dilutions in solution. As to the method:
as §1, §2, §3
The Kd is the concentration at which binding is half-saturated. Low readings indicate tighter binding, high ones weaker binding. In turn, B1 displayed a Kd of 78.5 nM.
On the same count and under the same terms, the figure for B2 is 76.5 nM.
Consider B3, for which the affinity, expressed as Kd, was 62.6 nM.
Same read-out and setting: the figure for B4 is 80.8 nM; for B5 it is 69.8 nM; for B6 it is 63.4 nM.
B7 showed a Kd of 64.9 nM.
Still for that read-out and setting: the figure for B8 is 61 nM; for B9 it is 68.2 nM.
